Data published in a collection of fitness landscapes (doi:10.1016/j.celrep.2020.107928).
In all, about 81,000 sequences were measured (“one-hybrid fitness for binding parS DNA”: median about -0.17, highest 2% from about 0.51 on). The list shows a part of the results.

B1: Caulobacter ParB omega fusion; a variant is named by its letters at X, in order, B8GW30 (parent)
chain: MESVVVGEPGMSEGRRGLGRGLSALLGEVDAAPAQAPGEQLGGSREAPIEILQRNPDQPRRTFREEDLEDLSNSIREKGVLQPILVRPSPDTAGEYQIVAGERAWRAAQRAGLKTVPIMVRELDDLAVLEIGIIENVQRADLNVLEEALSYKVLMEKFERTQENIAQTIGKSXSHVANXMRLLXLPDEVQSYLVSGELTAXHARAIAAAADPVALAKQIIEGGLSVRETEALARKAPNLSAGKSKGGRPPRVKDTDTQALESDLSSVLGLDVSIDHRGSTGTLTITYATLEQLDDLCNRLTRGI

Variants of: B1
Assay: one-hybrid fitness for binding parS DNA (scaled: cognate 1, non-cognate 0); higher = stronger binding
Details: with parS DNA site
In short: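 Fitness is the rescaled log change in variant-to-wild-type read ratio, measured by Illumina sequencing of plasmids before and after bacterial one-hybrid selection. The scale puts cognate at 1 and non-cognate at 0. Selection of Caulobacter ParB libraries, four specificity codons randomised, took place in E. coli USO with a HIS3 reporter, site 19 bp from the promoter, over 48 hours at 37°C on M9-minus-histidine with 0.1 mM IPTG and 5 mM 3-AT.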

Row | Variant | one-hybrid fitness for binding parS DNA
1 | QQCW | ≤ 0.2
2 | TFLS | ≤ 0.2
3 | NPED | ≤ 0.2
4 | PALK | ≤ 0.2
5 | TWCR | ≤ 0.2
6 | LTKG | ≤ 0.2
7 | AKRY | ≤ 0.2
8 | LSTN | ≤ 0.2
9 | RHDK | ≤ 0.2
10 | AGYR | ≤ 0.2
11 | TRQW | ≤ 0.2
12 | HVHG | ≤ 0.2
13 | IRCG | ≤ 0.2
14 | FYGR | ≤ 0.2
15 | TWSV | ≤ 0.2
16 | HNYP | ≤ 0.2
17 | LRTN | ≤ 0.2
18 | SYST | ≤ 0.2
19 | LSGC | ≤ 0.2
20 | GYLR | ≤ 0.2
21 | FAIA | ≤ 0.2
22 | DMNR | ≤ 0.2
23 | QLPF | ≤ 0.2
24 | QCKW | ≤ 0.2
25 | EWPV | ≤ 0.2

Row | Variant | one-hybrid fitness for binding parS DNA
26 | GYTC | ≤ 0.2
27 | SLKC | ≤ 0.2
28 | RSFN | 0.383
29 | SQAL | ≤ 0.2
30 | IIPS | ≤ 0.2
31 | QMNS | ≤ 0.2
32 | YKYG | ≤ 0.2
33 | MGRT | ≤ 0.2
34 | SYIF | ≤ 0.2
35 | LTYS | ≤ 0.2
36 | LVIG | ≤ 0.2
37 | ENIM | ≤ 0.2
38 | LVIS | ≤ 0.2
39 | VHHF | ≤ 0.2
40 | CMPQ | ≤ 0.2
41 | GKHR | ≤ 0.2
42 | VTTE | ≤ 0.2
43 | QLEV | ≤ 0.2
44 | THFS | ≤ 0.2
45 | LKQI | ≤ 0.2
46 | HHAV | ≤ 0.2
47 | IFMS | ≤ 0.2
48 | QNTG | ≤ 0.2
49 | RWDY | 0.264
50 | RMEQ | ≤ 0.2

Row | Variant | one-hybrid fitness for binding parS DNA
51 | DHRG | ≤ 0.2
52 | LRYE | ≤ 0.2
53 | HQAK | ≤ 0.2
54 | CWHG | 0.244
55 | AISF | ≤ 0.2
56 | QNPP | ≤ 0.2
57 | PWPK | ≤ 0.2
58 | RDVD | ≤ 0.2
59 | RGNE | ≤ 0.2
60 | QMKE | ≤ 0.2
61 | QPEL | ≤ 0.2
62 | RPAV | ≤ 0.2
63 | SNMM | ≤ 0.2
64 | VVQS | ≤ 0.2
65 | QHMA | ≤ 0.2
66 | RYTF | ≤ 0.2
67 | ALEV | ≤ 0.2
68 | SSAC | ≤ 0.2
69 | IFVR | ≤ 0.2
70 | RPVA | ≤ 0.2
71 | MEHI | ≤ 0.2
72 | AISM | ≤ 0.2
73 | FFGT | ≤ 0.2
74 | TQWD | ≤ 0.2
75 | DSEW | ≤ 0.2

Row | Variant | one-hybrid fitness for binding parS DNA
76 | YRVN | ≤ 0.2
77 | GYHM | ≤ 0.2
78 | ESMG | ≤ 0.2
79 | DNVG | ≤ 0.2
80 | REPK | ≤ 0.2
81 | FLTT | ≤ 0.2
82 | LTTW | ≤ 0.2
83 | KAQS | ≤ 0.2
84 | QTSA | ≤ 0.2
85 | MCMS | 0.201
86 | HVQA | ≤ 0.2
87 | QKMV | ≤ 0.2
88 | QKDG | ≤ 0.2
89 | PAAA | ≤ 0.2
90 | QVKL | ≤ 0.2
91 | TIFW | ≤ 0.2
92 | RAQQ | ≤ 0.2
93 | VMNP | ≤ 0.2
94 | RMTC | 0.985
95 | QDHE | ≤ 0.2
96 | TPAS | ≤ 0.2
97 | AVPY | ≤ 0.2
98 | EIHH | ≤ 0.2
99 | HLLW | ≤ 0.2
100 | SCGS | ≤ 0.2

Row | Variant | one-hybrid fitness for binding parS DNA
101 | FSLV | ≤ 0.2
102 | MVRE | ≤ 0.2
103 | MLHM | ≤ 0.2
104 | LNAL | ≤ 0.2
105 | MHQY | ≤ 0.2
106 | AFID | ≤ 0.2
107 | FRRY | ≤ 0.2
108 | PLAM | ≤ 0.2
109 | HHFT | ≤ 0.2
110 | VGFT | ≤ 0.2
111 | QPLE | ≤ 0.2
112 | AHCH | ≤ 0.2
113 | RHVW | ≤ 0.2
114 | DSTD | ≤ 0.2
115 | IAGY | ≤ 0.2
116 | KIGF | ≤ 0.2
117 | LQSM | ≤ 0.2
118 | RETA | ≤ 0.2
119 | LQPV | ≤ 0.2
120 | RNYH | ≤ 0.2
121 | RQDC | 0.863
122 | ANPS | ≤ 0.2
123 | QHLD | ≤ 0.2
124 | RKAA | 0.62
125 | AIAT | ≤ 0.2

Row | Variant | one-hybrid fitness for binding parS DNA
126 | KHEV | ≤ 0.2
127 | DRKC | ≤ 0.2
128 | NLKH | ≤ 0.2
129 | IVSW | ≤ 0.2
130 | PHMG | ≤ 0.2
131 | RLIA | 0.592
132 | PSDM | ≤ 0.2
133 | VRMG | ≤ 0.2
134 | PYGH | ≤ 0.2
135 | RSKP | ≤ 0.2
136 | CPTP | ≤ 0.2
137 | WCNV | ≤ 0.2
138 | DVTF | ≤ 0.2
139 | FLKD | ≤ 0.2
140 | INHF | 0.369
141 | RIAA | 0.62
142 | QKIS | ≤ 0.2
143 | QIGD | ≤ 0.2
144 | QTSW | ≤ 0.2
145 | AARW | ≤ 0.2
146 | QYVI | ≤ 0.2
147 | LYPQ | ≤ 0.2
148 | YGFC | ≤ 0.2
149 | RTQA | 0.627
150 | RSIM | ≤ 0.2

Row | Variant | one-hybrid fitness for binding parS DNA
151 | INTR | ≤ 0.2
152 | FRTR | ≤ 0.2
153 | RMCK | ≤ 0.2
154 | RHES | 0.962
155 | CWRL | ≤ 0.2
156 | GLMC | ≤ 0.2
157 | TNSH | ≤ 0.2
158 | TGAT | ≤ 0.2
159 | PKTT | ≤ 0.2
160 | IAQN | ≤ 0.2
161 | DTKH | ≤ 0.2
162 | TDLQ | ≤ 0.2
163 | RATC | 0.982
164 | SATL | ≤ 0.2
165 | GSLV | ≤ 0.2
166 | GFTY | ≤ 0.2
167 | MGFC | ≤ 0.2
168 | YLRD | ≤ 0.2
169 | TWVV | ≤ 0.2
170 | SVAV | ≤ 0.2
171 | QLTI | ≤ 0.2
172 | ATTC | ≤ 0.2
173 | HHPA | ≤ 0.2
174 | NRAE | ≤ 0.2
175 | FPNT | ≤ 0.2

Row | Variant | one-hybrid fitness for binding parS DNA
176 | NCAP | ≤ 0.2
177 | PVLI | ≤ 0.2
178 | GYGS | ≤ 0.2
179 | QMAE | ≤ 0.2
180 | NCAV | ≤ 0.2
181 | KNRG | ≤ 0.2
182 | VIMC | ≤ 0.2
183 | KAYC | ≤ 0.2
184 | NMVF | ≤ 0.2
185 | PTGS | ≤ 0.2
186 | QWSR | ≤ 0.2
187 | NSAW | ≤ 0.2
188 | NMIA | ≤ 0.2
189 | TSHS | ≤ 0.2
190 | GSTA | ≤ 0.2
191 | IEMF | ≤ 0.2
192 | WPDT | ≤ 0.2
193 | SIPN | ≤ 0.2
194 | YRTC | 0.228
195 | TGNH | ≤ 0.2
